The list shows a part of the results.
Experiments:
HSkMC = human skeletal muscle cells; assay: cytotoxicity call (relative viability < 0.9); conditions: 10 µM
HepG2 = assay: cytotoxicity call (relative viability < 0.9); conditions: 10 µM
S. aureus RN4220 = assay: growth inhibition call (relative growth <= 0.2); conditions: 50 µM

Q: For `C[C@H](CO)N1C[C@H](C)[C@H](CN(C)C(=O)NC2CCCCC2)Oc2ccc(NS(=O)(=O)c3cn(C)cn3)cc2CC1=O`, which cytotoxicity call (HSkMC) is on record?
A: Its cytotoxicity call is “inactive”.

Q: And the cytotoxicity call (HepG2)?
A: The cytotoxicity call was “inactive”.

Q: And the growth inhibition call (S. aureus RN4220)?
A: The growth inhibition call was “inactive”.

Q: Which cytotoxicity call (HSkMC) does the source give for `C[C@@H]1CCCCO[C@H](CN(C)Cc2ccccc2)[C@@H](C)CN([C@@H](C)CO)C(=O)c2cc(NC(=O)C3CCCCC3)ccc2O1` here?
A: The cytotoxicity call was “inactive”.

Q: And the cytotoxicity call (HepG2)?
A: Its cytotoxicity call is “inactive”.

Q: And the growth inhibition call (S. aureus RN4220)?
A: Its growth inhibition call is “inactive”.

Q: With `Cc1ccc(S(=O)(=O)Nc2ccc3c(c2)C(=O)N([C@H](C)CO)C[C@H](C)[C@H](CN(C)Cc2ccc(C(F)(F)F)cc2)O3)cc1` as the molecule, how does the cytotoxicity call (HSkMC) read?
A: Its cytotoxicity call is “inactive”.

Q: What about the cytotoxicity call (HepG2) of the same molecule?
A: The cytotoxicity call was “active”.

Q: And the growth inhibition call (S. aureus RN4220)?
A: Its growth inhibition call is “inactive”.

Q: For `COc1ccc(NC(=O)N(C)C[C@@H]2OCc3cnnn3CCCC(=O)N([C@H](C)CO)C[C@@H]2C)c(OC)c1`, which cytotoxicity call (HSkMC) is on record?
A: The cytotoxicity call was “inactive”.

Q: What about the cytotoxicity call (HepG2) of the same molecule?
A: Its cytotoxicity call is “inactive”.

Q: And the growth inhibition call (S. aureus RN4220)?
A: Its growth inhibition call is “inactive”.

Q: `CO[C@H]1CN(C)C(=O)c2ccc(NC(=O)CC(F)(F)F)cc2OC[C@H](C)N(C(=O)C2CCOCC2)C[C@H]1C` was tested. Which cytotoxicity call (HSkMC) did it give?
A: Its cytotoxicity call is “inactive”.

Q: And the cytotoxicity call (HepG2)?
A: The cytotoxicity call was “inactive”.

Q: And the growth inhibition call (S. aureus RN4220)?
A: Its growth inhibition call is “inactive”.

Q: Which cytotoxicity call (HSkMC) does the source give for `C[C@H](CO)N1C[C@H](C)[C@@H](CN(C)S(=O)(=O)c2cn(C)cn2)Oc2ccc(NC(=O)C3CC3)cc2CC1=O` here?
A: Its cytotoxicity call is “inactive”.

Q: And the cytotoxicity call (HepG2)?
A: Its cytotoxicity call is “inactive”.

Q: What about the growth inhibition call (S. aureus RN4220) of the same molecule?
A: Its growth inhibition call is “inactive”.

Q: What does the source list for `COC1C=COC2(C)Oc3c(C)c(O)c4c(O)c(c(C=NN5CCN(C6CCCC6)CC5)c(O)c4c3C2=O)NC(=O)C(C)=CC=CC(C)C(O)C(C)C(O)C(C)C(OC(C)=O)C1C` (stereo not given)?
A: cytotoxicity call (HSkMC): inactive; cytotoxicity call (HepG2): inactive; growth inhibition call (S. aureus RN4220): inactive

Q: Which cytotoxicity call (HSkMC) does the source give for `CC(=O)O[C@@H]1C[C@H]2[C@@]3(C)CC[C@@H](OC(=O)CC(=O)O)C(C)(C)[C@@H]3CC[C@@]2(C)[C@]2(C)CC[C@](O)([C@]3(C)CC[C@H](C(C)(C)O)O3)[C@@H]12` here?
A: The cytotoxicity call was “inactive”.

Q: And the cytotoxicity call (HepG2)?
A: Its cytotoxicity call is “inactive”.

Q: And the growth inhibition call (S. aureus RN4220)?
A: Its growth inhibition call is “inactive”.

Q: With `Nc1nc(O[C@@H](c2ccc(-c3cccc(F)c3)cc2)C(F)(F)F)cc(-c2ccc(C[C@H](N)C(=O)O)cc2)n1` as the molecule, how does the cytotoxicity call (HSkMC) read?
A: The cytotoxicity call was “inactive”.

Q: What about the cytotoxicity call (HepG2) of the same molecule?
A: Its cytotoxicity call is “inactive”.

Q: And the growth inhibition call (S. aureus RN4220)?
A: The growth inhibition call was “inactive”.

Q: For `CC(C)c1cccc(NC(=O)C[C@H]2CC[C@H]3[C@@H](COc4ccc(NS(=O)(=O)c5ccccc5Cl)cc4C(=O)N3C)O2)c1`, which cytotoxicity call (HSkMC) is on record?
A: Its cytotoxicity call is “inactive”.

Q: And the cytotoxicity call (HepG2)?
A: The cytotoxicity call was “inactive”.

Q: And the growth inhibition call (S. aureus RN4220)?
A: The growth inhibition call was “inactive”.

Q: What does the source list for `CC(C)C[C@H](NC(=O)[C@H](CCCCN)NC(=O)[C@H](CCCNC(=N)N)NC(=O)[C@H](C)NC(=O)[C@H](CO)NC(=O)[C@H](CCCCN)NC(=O)[C@H](CCCNC(=N)N)NC(=O)[C@H](C)NC(=O)CNC(=O)[C@@H](NC(=O)[C@H](Cc1ccccc1)NC(=O)CNC(=O)CNC(=O)[C@@H](N)Cc1ccccc1)[C@@H](C)O)C(=O)N[C@@H](C)C(=O)N[C@@H](CC(N)=O)C(=O)N[C@@H](CCC(N)=O)C(=O)O`?
A: cytotoxicity call (HSkMC): inactive; cytotoxicity call (HepG2): inactive; growth inhibition call (S. aureus RN4220): inactive

Q: Which cytotoxicity call (HSkMC) does the source give for `NNC(=O)C1CCCC1` here?
A: Its cytotoxicity call is “inactive”.

Q: What about the cytotoxicity call (HepG2) of the same molecule?
A: The cytotoxicity call was “inactive”.

Q: And the growth inhibition call (S. aureus RN4220)?
A: Its growth inhibition call is “inactive”.

Q: How did the cytotoxicity call (HSkMC) turn out when `O=C(C[C@@H]1C=C[C@H](NS(=O)(=O)c2ccc(F)cc2)[C@H](CO)O1)NCCN1CCCCC1` was run?
A: The cytotoxicity call was “inactive”.

Q: What about the cytotoxicity call (HepG2) of the same molecule?
A: Its cytotoxicity call is “inactive”.

Q: What about the growth inhibition call (S. aureus RN4220) of the same molecule?
A: Its growth inhibition call is “inactive”.

Q: With `Cc1noc(C)c1S(=O)(=O)Nc1ccc2c(c1)C(=O)N([C@H](C)CO)C[C@@H](C)[C@H](CN(C)C(=O)Nc1ccc3c(c1)OCO3)O2` as the molecule, how does the cytotoxicity call (HSkMC) read?
A: The cytotoxicity call was “inactive”.

Q: What about the cytotoxicity call (HepG2) of the same molecule?
A: Its cytotoxicity call is “inactive”.

Q: What about the growth inhibition call (S. aureus RN4220) of the same molecule?
A: The growth inhibition call was “inactive”.

Q: With `CC(C)NC(=O)N(C)C[C@@H]1OCCCC[C@H](C)Oc2ccc(NC(=O)C3CCCCC3)cc2C(=O)N([C@@H](C)CO)C[C@@H]1C` as the molecule, how does the cytotoxicity call (HSkMC) read?
A: Its cytotoxicity call is “inactive”.

Q: What about the cytotoxicity call (HepG2) of the same molecule?
A: Its cytotoxicity call is “inactive”.

Q: And the growth inhibition call (S. aureus RN4220)?
A: The growth inhibition call was “inactive”.

Q: For `C[C@@H]1CN([C@@H](C)CO)S(=O)(=O)c2ccc(C#Cc3ccccc3)cc2O[C@H]1CN(C)S(=O)(=O)c1cn(C)cn1`, which cytotoxicity call (HSkMC) is on record?
A: The cytotoxicity call was “inactive”.

Q: What about the cytotoxicity call (HepG2) of the same molecule?
A: The cytotoxicity call was “inactive”.

Q: What about the growth inhibition call (S. aureus RN4220) of the same molecule?
A: The growth inhibition call was “inactive”.

Q: What does the source list for `C[C@@H]1CN([C@@H](C)CO)C(=O)Cc2cc(NC(=O)Cn3cnnn3)ccc2O[C@H]1CN(C)Cc1ccc(Cl)c(Cl)c1`?
A: cytotoxicity call (HSkMC): inactive; cytotoxicity call (HepG2): inactive; growth inhibition call (S. aureus RN4220): inactive

Q: Which cytotoxicity call (HSkMC) does the source give for `CCNc1cc(=N)n(CC)c2n[nH]c(N)c12` here?
A: The cytotoxicity call was “inactive”.

Q: What about the cytotoxicity call (HepG2) of the same molecule?
A: The cytotoxicity call was “inactive”.

Q: And the growth inhibition call (S. aureus RN4220)?
A: The growth inhibition call was “inactive”.

Q: For `C[C@@H]1CN([C@@H](C)CO)C(=O)c2cc(NC(=O)C3CC3)ccc2O[C@H]1CN(C)S(=O)(=O)c1ccc(F)cc1`, which cytotoxicity call (HSkMC) is on record?
A: The cytotoxicity call was “inactive”.

Q: And the cytotoxicity call (HepG2)?
A: Its cytotoxicity call is “inactive”.

Q: What about the growth inhibition call (S. aureus RN4220) of the same molecule?
A: Its growth inhibition call is “inactive”.

Q: Which results are given for `COc1ccc(NC(=O)N(C)C[C@@H]2OCCCC[C@H](C)Oc3ccc(NC(=O)CCC(F)(F)F)cc3C(=O)N([C@H](C)CO)C[C@H]2C)cc1`?
A: cytotoxicity call (HSkMC): inactive; cytotoxicity call (HepG2): inactive; growth inhibition call (S. aureus RN4220): inactive

Q: Which results are given for `C[C@H]1CN([C@@H](C)CO)C(=O)c2cccc(NS(C)(=O)=O)c2O[C@H]1CN(C)C(=O)Nc1ccccc1`?
A: cytotoxicity call (HSkMC): inactive; cytotoxicity call (HepG2): inactive; growth inhibition call (S. aureus RN4220): inactive

Q: With `C[C@@H]1CN([C@@H](C)CO)C(=O)c2cc(C#CC3CCCC3)cnc2O[C@@H]1CN(C)S(=O)(=O)c1cccc(F)c1` as the molecule, how does the cytotoxicity call (HSkMC) read?
A: Its cytotoxicity call is “inactive”.

Q: What about the cytotoxicity call (HepG2) of the same molecule?
A: Its cytotoxicity call is “inactive”.

Q: What about the growth inhibition call (S. aureus RN4220) of the same molecule?
A: Its growth inhibition call is “inactive”.

Q: Which results are given for `Cc1noc(C)c1NC(=O)N(C)C[C@@H]1OCCCC[C@@H](C)Oc2ccc(NC(=O)Cc3ccccc3)cc2C(=O)N([C@@H](C)CO)C[C@H]1C`?
A: cytotoxicity call (HSkMC): inactive; cytotoxicity call (HepG2): inactive; growth inhibition call (S. aureus RN4220): inactive

Q: What does the source list for `C[C@@H]1CN([C@@H](C)CO)C(=O)c2c(c3ccccc3n2C)-c2ccccc2CO[C@@H]1CN(C)S(=O)(=O)c1cn(C)cn1`?
A: cytotoxicity call (HSkMC): inactive; cytotoxicity call (HepG2): inactive; growth inhibition call (S. aureus RN4220): inactive

Q: For `C[C@@H]1CCCCO[C@H](CN(C)C(=O)Nc2cccc3ccccc23)[C@H](C)CN([C@@H](C)CO)C(=O)c2cc(NC(=O)Nc3ccc(C(F)(F)F)cc3)ccc2O1`, which cytotoxicity call (HSkMC) is on record?
A: The cytotoxicity call was “inactive”.

Q: What about the cytotoxicity call (HepG2) of the same molecule?
A: The cytotoxicity call was “active”.

Q: And the growth inhibition call (S. aureus RN4220)?
A: Its growth inhibition call is “inactive”.

Source: the antibiotic and cytotoxicity screens of Wong et al. (2023)
